Source: publication PMC6212790
Some of the results follow. At the low end of the ranking, values are background and their order means little.

Biological target: T1, GST-Rok-C97-191 (UniProt O34857)
T1 sequence: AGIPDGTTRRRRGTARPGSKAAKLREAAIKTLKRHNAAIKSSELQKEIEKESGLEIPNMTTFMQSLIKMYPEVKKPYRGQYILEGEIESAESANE
Experiment: protein binding microarray;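 further: rank score from −0.5 (least bound) to 0.5 (best bound)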
Settings: Rok is a gene silencer of Bacillus subtilis; high values mean tight binding; most listed sequences are background and not binding sites; double strand, one strand shown

Row | Sequence | binding signal [E-score]
1 | ATTCTGTG | 0.13
2 | CTAATGGA | -0.0716
3 | CAGTAGAG | 0.0442
4 | AGAATTTA | 0.279
5 | GCTTGACA | -0.145
6 | GAGGCTGC | -0.255
7 | ATACGCCG | -0.0507
8 | CTATCCAG | 0.0084
9 | CGGGTGTC | -0.188
10 | CCTTACGA | 0.0118
11 | CCGGCCGA | -0.088
12 | ACATTATA | 0.269
13 | CTTGTCCA | -0.139
14 | CCCAAGAA | -0.0746
15 | TAAAGTAA | 0.00779
16 | TTCGTCAA | -0.114
17 | GAGCACGA | -0.282
18 | CTAGTTGA | 0.2
19 | CAATGCCA | -0.133
20 | ACTCTCCG | -0.316
21 | CTCGTCTC | -0.134
22 | AGTTGCGC | -0.017
23 | ACGTCTCA | -0.211
24 | CGTACCGA | -0.1
25 | AAGGTGAC | -0.167

Row | Sequence | binding signal [E-score]
26 | ACACGCCC | -0.129
27 | GAGACGGA | -0.0409
28 | TAGGGGAA | -0.22
29 | ATCTCCCG | -0.0519
30 | AGCTCGGG | -0.116
31 | CCAAACTC | -0.0249
32 | ATCAACGG | 0.162
33 | CACCCCGA | -0.0102
34 | GCATCAGA | -0.0826
35 | GGTGATTA | -0.0126
36 | AATAAGGA | -0.0779
37 | GCCAAGGA | -0.186
38 | ACGCTGCA | 0.0486
39 | TCATCCAA | -0.0946
40 | AACCTTAA | -0.0493
41 | ACGAGAGG | -0.252
42 | CGCAACTA | 0.207
43 | AGTCTGGA | -0.00732
44 | CATCCTAA | 0.0462
45 | TCCAGTCA | -0.0754
46 | GCATAAGA | -0.0154
47 | GATTACAC | -0.0687
48 | TGACGGCA | -0.227
49 | TCGTCAGA | -0.0729
50 | GCGCGGGA | -0.18

Row | Sequence | binding signal [E-score]
51 | ACGCACGA | -0.0883
52 | GTCTTCGA | -0.174
53 | AGCTATAT | 0.308
54 | GACGATCC | -0.0848
55 | ATCGCAGC | 0.0323
56 | GTGGGGAA | -0.153
57 | CGGAGTAG | 0.00552
58 | GTCATTCA | -0.00123
59 | ATGATGAG | 0.0828
60 | ACCTTTTC | 0.00844
61 | ACCTGTTC | -0.0432
62 | ACTTAGGC | 0.00568
63 | CAGAGGCC | -0.296
64 | ACGGACGA | -0.135
65 | TAATCAAA | 0.0224
66 | CCGATGAC | -0.00415
67 | CCTGAGAA | -0.132
68 | CATTAGTC | 0.0362
69 | GGCGGACA | -0.298
70 | GCATCGGC | -0.158
71 | GCTTATAC | 0.242
72 | TGAAGGCA | -0.0997
73 | ACCCACAT | 0.112
74 | CTAAACGA | -0.0375
75 | TGACCAAA | -0.053

Row | Sequence | binding signal [E-score]
76 | CGCCAAGC | -0.218
77 | AAGTATAG | 0.171
78 | CCCTAGAC | -0.31
79 | AACACCTC | 0.0204
80 | ATCTGCTG | 0.0272
81 | GGGCGAAA | -0.0243
82 | AATATATG | 0.337
83 | ACGCTAGC | -0.0173
84 | CGTTGACA | -0.179
85 | CGTTCACC | -0.0907
86 | CCCTTAGC | -0.227
87 | CCGTCATC | -0.113
88 | CAATGTGG | 0.000784
89 | AGTCTCCG | -0.173
90 | CCGGTGAG | -0.153
91 | TATTCCCA | 0.217
92 | CGGAAGCA | -0.174
93 | GAGCAAAC | -0.163
94 | TCGAACAA | -0.0451
95 | AACAGATA | 0.192
96 | CTTCTACC | 0.348
97 | CAGCCATG | -0.126
98 | ACAGTAAT | 0.32
99 | AACGATCC | 0.163
100 | ATACCCAT | 0.25

Row | Sequence | binding signal [E-score]
101 | GCGGTAGA | 0.278
102 | CGGGGGAC | -0.203
103 | CGTGCGAA | -0.0747
104 | GATCGTTA | 0.107
105 | ACGGCGAC | -0.291
106 | AGTCTCAA | -0.137
107 | GGGAGCGA | -0.294
108 | AAAACCCC | -0.179
109 | GCTATAGA | 0.023
110 | CCTAGAAG | -0.0621
111 | GTAGGGTA | 0.133
112 | GGAGTTAC | 0.0244
113 | AGGTCTCA | -0.0666
114 | CCTACTAG | 0.18
115 | GGGGCTCA | -0.369
116 | CACGAGAG | -0.169
117 | CTCCGTCA | -0.244
118 | GTCTATCA | -0.0797
119 | AGCTAGAG | 0.0924
120 | AGGGCTAT | 0.0863
121 | ACCAGCGC | -0.192
122 | ACGGGCCC | -0.309
123 | ACAACCTA | 0.137
124 | CATCTTCC | -0.196
125 | CATGAAGC | -0.256

Row | Sequence | binding signal [E-score]
126 | TAGAGAGA | 0.0622
127 | CATAACTC | 0.0989
128 | ATCGTCCA | -0.0547
129 | CCGAGAAA | 0.0915
130 | AGTATCTA | 0.351
131 | CGACTGGA | -0.0736
132 | ATGTCTGC | -0.0934
133 | AAATCTAT | 0.4
134 | CGGAGGGA | -0.205
135 | GCTCTTCC | -0.284
136 | ATGAGTTC | -0.1
137 | CCACTGGG | -0.271
138 | TCTTCTAA | 0.0806
139 | AAACCGGG | -0.214
140 | ACGGGATA | 0.00783
141 | TAATGTGA | 0.171
142 | CAACCGCA | -0.0623
143 | GGAGGAAC | -0.069
144 | AAACGACC | -0.0936
145 | AGCAAGTG | 0.102
146 | AACTAATC | 0.129
147 | ATAGGGTC | 0.13
148 | GAAAATCA | 0.0193
149 | CGAGCCAA | -0.127
150 | ACACGATC | 0.00401

Row | Sequence | binding signal [E-score]
151 | CGAGTCAC | -0.176
152 | GATTCTTA | 0.133
153 | ACACGTTG | -0.142
154 | CCCCTTCC | -0.354
155 | CCGCTTCA | -0.195
156 | ACATTGAG | 0.031
157 | CTTATCAC | 0.102
158 | ATCTGAAA | 0.000445
159 | ACTTCTAA | 0.113
160 | TTGTAAAA | 0.265
161 | CAACATGG | -0.106
162 | AAAAATAG | 0.2
163 | ACCCGGGT | -0.287
164 | CTAAGCAA | 0.105
165 | GTATAGCA | 0.145
166 | ATATTTAC | 0.375
167 | ACACGAGT | -0.105
168 | CGCGCCGA | -0.121
169 | GAATAGCC | -0.126
170 | GCCAGTCC | -0.159
171 | CTTCGGGC | -0.0805
172 | AACATCAA | 0.0372
